B1: PhoQ; a variant is named by its letters at X, in order, P23837 (parent)
chain: MKKLLRLFFPLSLRVRFLLATAAVVLVLSLAYGMVALIGYSVSFDKTTFRLLRGESNLFYTLAKWENNKLHVELPENIDKQSPTMTLIYDENGQLLWAQRDVPWLMKMIQPDWLKSNGFHEIEADVNDTSLLLSGDHSIQQQLQEVREDDDDAEMTHSVAVNVYPATSRMPKLTIVVVDTIPVELKSSYMVWSWFIYVLSANLLLVIPLLWVAAWWSLRPIEALAKEVRELEEHNRELLNPATTRELTSLVRNLNRLLKSERERYDKYRTTLTDLTHSLKTPLXXLQXXLRSLRSEKMSVSDAEPVMLEQISRISQQIGYYLHRASMRGGTLLSRELHPVAPLLDNLTSALNKVYQRKGVNISLDISPEISFVGEQNDFVEVMGNVLDNACKYCLEFVEISARQTDEHLYIVVEDDGPGIPLSKREVIFDRGQRVDTLRPGQGVGLAVAREITEQYEGKIVAGESMLGGARMEVIFGRQHSAPKDE

Some of the results follow.

The record followed here is a collection of fitness landscapes (doi:10.1126/science.1257360).

Variants of B1 are the subject of this experiment. In words: enrichment ratio after two sorts for PhoP signalling (ratio (wild type AVST 3.29)); higher = more functional. The settings on record: with PhoP (E. coli).
As for LRDT, the enrichment ratio was ≤ 0.25.

As for STVK, the enrichment ratio came out at 8.45.

For DRHA, the enrichment ratio is ≤ 0.25.

Regarding MFYE, the enrichment ratio is ≤ 0.25.

On to YGWM, for which the enrichment ratio was ≤ 0.25.

TPQG: the enrichment ratio is ≤ 0.25.

For the variant RSAA, the enrichment ratio is ≤ 0.25.

In the case of NKTL, the enrichment ratio was ≤ 0.25.

As for VLSQ, the enrichment ratio is ≤ 0.25.

With ALIV, the enrichment ratio came to 0.811.

For the variant WVKK, the enrichment ratio is ≤ 0.25.

TWIY: the enrichment ratio was ≤ 0.25.

GMWY: the enrichment ratio is ≤ 0.25.

YWNQ: the enrichment ratio is ≤ 0.25.

For the variant ARND, the enrichment ratio was ≤ 0.25.

Turning to PMQM, the enrichment ratio is ≤ 0.25.

As to AYKL, the enrichment ratio was ≤ 0.25.

For AYEY, the enrichment ratio is ≤ 0.25.

On to YAHS, for which the enrichment ratio was ≤ 0.25.

Take DELT: the enrichment ratio was ≤ 0.25.

On to HAAG, for which the enrichment ratio was ≤ 0.25.

For MFHT, the enrichment ratio is ≤ 0.25.

As for PDFN, the enrichment ratio is ≤ 0.25.

Turning to HSPH, the enrichment ratio is ≤ 0.25.

For LSWC, the enrichment ratio was ≤ 0.25.

Turning to SVPV, the enrichment ratio worked out at 5.

With FHNW, the enrichment ratio is ≤ 0.25.

Regarding IQRK, the enrichment ratio was ≤ 0.25.

Turning to FLHM, the enrichment ratio was ≤ 0.25.

As to MTKE, the enrichment ratio was ≤ 0.25.

KRRW: the enrichment ratio is ≤ 0.25.

Take VCRP: the enrichment ratio is ≤ 0.25.

For IEHV, the enrichment ratio was ≤ 0.25.

For GLLS, the enrichment ratio was ≤ 0.25.

For DVRS, the enrichment ratio is ≤ 0.25.

As to LFIC, the enrichment ratio was ≤ 0.25.

For FQEA, the enrichment ratio is ≤ 0.25.

In the case of EMIN, the enrichment ratio is ≤ 0.25.

Turning to KLYI, the enrichment ratio is ≤ 0.25.

DFSS: the enrichment ratio is ≤ 0.25.

Regarding FGIQ, the enrichment ratio is ≤ 0.25.

On to QMRW, for which the enrichment ratio was ≤ 0.25.

Consider WLIA, for which the enrichment ratio is ≤ 0.25.

RFVN: the enrichment ratio is ≤ 0.25.

On to KKNC, for which the enrichment ratio is ≤ 0.25.

Regarding PKAG, the enrichment ratio is ≤ 0.25.

Take ELHY: the enrichment ratio was ≤ 0.25.

Take QLCC: the enrichment ratio was ≤ 0.25.

Regarding AKWA, the enrichment ratio is ≤ 0.25.

As for STWW, the enrichment ratio is ≤ 0.25.

Regarding WKQF, the enrichment ratio is ≤ 0.25.

As for HSIW, the enrichment ratio was ≤ 0.25.

PWRQ: the enrichment ratio was ≤ 0.25.

Consider KYCR, for which the enrichment ratio was ≤ 0.25.

As to TMQR, the enrichment ratio came to 8.83.

Consider KPDH, for which the enrichment ratio was ≤ 0.25.

For the variant VMAQ, the enrichment ratio was ≤ 0.25.

Consider LWFI, for which the enrichment ratio was ≤ 0.25.

VKRR: the enrichment ratio is ≤ 0.25.

For the variant QPIQ, the enrichment ratio was ≤ 0.25.

As for HLCC, the enrichment ratio was ≤ 0.25.

For TFVS, the enrichment ratio is ≤ 0.25.

Consider VHFC, for which the enrichment ratio is ≤ 0.25.

For the variant MYWP, the enrichment ratio was ≤ 0.25.

Turning to HTIL, the enrichment ratio was ≤ 0.25.

Turning to HIVH, the enrichment ratio was ≤ 0.25.

On to AERD, for which the enrichment ratio is ≤ 0.25.

On to GNWF, for which the enrichment ratio was ≤ 0.25.

Regarding LMDE, the enrichment ratio is ≤ 0.25.

With WKLH, the enrichment ratio was ≤ 0.25.

With HHQP, the enrichment ratio is ≤ 0.25.

As for FDLA, the enrichment ratio was ≤ 0.25.

For the variant FMLF, the enrichment ratio is ≤ 0.25.

On to ASYV, for which the enrichment ratio was ≤ 0.25.

Regarding SIMH, the enrichment ratio amounted to 10.

Turning to FRPW, the enrichment ratio is ≤ 0.25.

For NLYY, the enrichment ratio was ≤ 0.25.

Take MNKC: the enrichment ratio is ≤ 0.25.

Take SRCG: the enrichment ratio is ≤ 0.25.

On to DYSN, for which the enrichment ratio was ≤ 0.25.

For the variant GMHP, the enrichment ratio was ≤ 0.25.

For PEYW, the enrichment ratio was ≤ 0.25.

For SLCI, the enrichment ratio is 10.1.

KLVY: the enrichment ratio was ≤ 0.25.

In the case of FMVG, the enrichment ratio is ≤ 0.25.

For the variant HNQT, the enrichment ratio is ≤ 0.25.

As for STAQ, the enrichment ratio was found to be 7.82.

Consider SNRM, for which the enrichment ratio was ≤ 0.25.

In the case of TNVE, the enrichment ratio was ≤ 0.25.

Consider WLTW, for which the enrichment ratio is ≤ 0.25.

Regarding FYIL, the enrichment ratio was ≤ 0.25.

For the variant VITQ, the enrichment ratio was ≤ 0.25.

Take PPRP: the enrichment ratio was ≤ 0.25.

With ETAP, the enrichment ratio is ≤ 0.25.

As for SVQP, the enrichment ratio was ≤ 0.25.

On to VGNH, for which the enrichment ratio was ≤ 0.25.

Regarding TIEP, the enrichment ratio is ≤ 0.25.

As to YNLY, the enrichment ratio is ≤ 0.25.

In the case of YFIK, the enrichment ratio was ≤ 0.25.

Turning to ERWK, the enrichment ratio was ≤ 0.25.

Turning to NSID, the enrichment ratio was ≤ 0.25.

Regarding MSWS, the enrichment ratio was 8.59.

Take MRDC: the enrichment ratio is ≤ 0.25.

Consider KMVW, for which the enrichment ratio is ≤ 0.25.

As for HAQY, the enrichment ratio was ≤ 0.25.

With IVKK, the enrichment ratio was ≤ 0.25.

As to PHFT, the enrichment ratio is ≤ 0.25.

For the variant GMCE, the enrichment ratio is ≤ 0.25.

As to SGKM, the enrichment ratio was ≤ 0.25.

On to MSMW, for which the enrichment ratio was ≤ 0.25.

On to DSQP, for which the enrichment ratio was ≤ 0.25.

Consider PYSV, for which the enrichment ratio is ≤ 0.25.

Regarding HKGN, the enrichment ratio is ≤ 0.25.

For MWIP, the enrichment ratio is ≤ 0.25.

In the case of FAKI, the enrichment ratio was ≤ 0.25.

On to LEIY, for which the enrichment ratio is ≤ 0.25.

As to RMSY, the enrichment ratio was ≤ 0.25.

Turning to AVIN, the enrichment ratio is 0.567.

STLF: the enrichment ratio was 14.6.

Turning to SKDW, the enrichment ratio was ≤ 0.25.

Take LLNS: the enrichment ratio is ≤ 0.25.

In the case of HCQK, the enrichment ratio is ≤ 0.25.

In the case of GRWV, the enrichment ratio was ≤ 0.25.

NDSW: the enrichment ratio is ≤ 0.25.

Take EHSQ: the enrichment ratio was ≤ 0.25.

Regarding LPQA, the enrichment ratio was ≤ 0.25.

With DNCI, the enrichment ratio is ≤ 0.25.

Regarding NSIT, the enrichment ratio was ≤ 0.25.

Turning to YRID, the enrichment ratio is ≤ 0.25.

With DHNA, the enrichment ratio was ≤ 0.25.

As to VKNW, the enrichment ratio is ≤ 0.25.

For KERQ, the enrichment ratio was ≤ 0.25.

Consider LTEP, for which the enrichment ratio was ≤ 0.25.

Consider PWIP, for which the enrichment ratio is ≤ 0.25.

In the case of KGIQ, the enrichment ratio was ≤ 0.25.

For MGPC, the enrichment ratio was ≤ 0.25.

For the variant WCLS, the enrichment ratio was ≤ 0.25.

With YVRD, the enrichment ratio was ≤ 0.25.

In the case of ADMF, the enrichment ratio is ≤ 0.25.

With GLPF, the enrichment ratio was ≤ 0.25.

For RPLC, the enrichment ratio is ≤ 0.25.

Consider VMNN, for which the enrichment ratio is ≤ 0.25.

Turning to RYMR, the enrichment ratio is ≤ 0.25.

For EDRW, the enrichment ratio is ≤ 0.25.

As for YQEC, the enrichment ratio was ≤ 0.25.

Take MDRL: the enrichment ratio is ≤ 0.25.

As to AGVA, the enrichment ratio turned out to be 1.62.

As for RCSE, the enrichment ratio was ≤ 0.25.

Consider VLEW, for which the enrichment ratio is ≤ 0.25.

Regarding PAMD, the enrichment ratio is ≤ 0.25.

On to NCYI, for which the enrichment ratio was ≤ 0.25.

Consider LTLT, for which the enrichment ratio is ≤ 0.25.

For the variant EHTD, the enrichment ratio was ≤ 0.25.
